From article PMC12040169 (PLOS Biology, 2025)
The list shows a part of the results.

Each molecule was assayed on T1, C. trachomatis L2/434/Bu expressing GFP (CTL2-GFP). Settings: total inclusion area; 28.5 h, 10 µM; inhibitor.
T1 construct: L2/434/Bu GFP intracellular growth in HeLa cells
Parameters: species or system HeLa; C. trachomatis total inclusion area by high-content imaging, normalised to DMSO
How it was run: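 Bulk GFP and resorufin signals were read first. Wells were then fixed, stained with Hoechst and imaged to detect GFP inclusions and host nuclei. MICs followed the previously described calculation.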

SMILES	% of control remaining
NC(=O)c1ccccc1NC(=O)CSc1nc(N)cc(N)n1 [CBK267983]	73.1069
CC(Nc1ccc(N2CCOCC2)cc1)C(=O)Nc1cccc(C#N)c1 (stereo not drawn) [CBK305846]	47.5958
CCCS(=O)(=O)NC[C@H]1C[C@@H]2CCN1C[C@@H]2c1cc(-c2cccs2)nn1C [CBK289101]	87.1772
CC(C)[C@H]1N=C2C=C(C(C)(C)C)ON2[C@H]2[C@H](O)[C@H](O)C[C@H]21 [CBK303234]	70.9431
O=C(Cc1ccccc1)N/N=C/c1nnco1 [CBK021274]	101.855
Cc1c(NC(=O)CSc2ccc(Cl)cc2)cccc1-c1nc2ncccc2o1 [CBK268829]	74.9437
NCc1ccc2cccc(O)c2n1 [CBK001376T]	3.53
CCc1nnc(CN(C)Cc2c(C)nn(C)c2Cl)o1 [CBK304132]	76.7356
CCCCOc1ccc(OC(=O)C2CCN(CCCC)CC2)cc1 [CBK122680]	136.181
O=C(O)CCC(=O)N1CCC(Cn2cncn2)(C2CCCCC2)CC1 [CBK136809]	78.0637
Cc1ccc2cc(CNc3ccc4[nH]ncc4c3)c(=O)[nH]c2c1 [CBK281935]	107.713
Oc1cccc(-c2nccnc2N2CCN(c3ccncc3)CC2)c1 [CBK037079]	114.017
CC(=O)Nc1ccc(/C=N/NC(=O)CN2CCCCCCC2)cc1 [CBK261617]	105.714
Cc1cc(=O)[nH]c(SCc2cc(=O)c3ccccc3[nH]2)n1 [CBK294410]	115.115
O=C(N[C@H]1C[C@H]2C(=O)NC[C@@H](CCC(=O)N3CCCCC3)N2C1)c1cccc(F)c1 [CBK289011]	95.1702
O=C(O)c1cn(C2CC2)c2cc(N3CCN(C(=S)Nc4ccc5c(c4)OCCO5)CC3)c(F)cc2c1=O [CBK268916]	73.469
O=C(O)CCC(=O)Nc1ccc(Br)cc1C(=O)c1ccccc1 [CBK262610]	97.1217
Cc1cc(C)c2nc(-n3cncn3)c(C)cc2c1 [CBK025958]	84.4275
O=C(NCC(=O)N1CCCC1c1cccs1)c1cccc(Br)c1 (stereo not drawn) [CBK305655]	118.59
Cc1cccc(OCCCC(=O)Nc2ccc(S(N)(=O)=O)cc2)c1C [CBK267963]	107.997
CCOc1ccc2nc(NC(=O)CC)sc2c1 [CBK287295]	64.7584

SMILES	% of control remaining
CN(Cc1ccc(-c2ccc(S(C)(=O)=O)cc2)nc1)C1CCN(C(=O)c2cc(Cl)ccc2Cl)CC1 [CBK165943T]	78.1307
CO[C@]1(c2cccc(C)c2)CC[C@@H](N2CCCCC2)CC1 [CBK015909G]	53.3243
Cc1sc(NC(=O)c2cc(-c3ccncc3)nc3ccc(Cl)cc23)c(C#N)c1C [CBK267742]	94.445
c1coc(-c2nnc(Nc3nc4cc5c(cc4s3)OCO5)o2)c1 [CBK287492]	106.043
O=C(CN1C(=O)c2ccc(Br)cc2C1=O)OCc1ccc(S(=O)(=O)N2CCOCC2)cc1 [CBK267505]	104.983
Cc1cc(NS(=O)(=O)c2ccc(NC(=O)c3ccc(C(C)(C)C)c(Br)c3)cc2)no1 [CBK265629]	83.9947
CS(=O)(=O)NC1CCN(c2nc(C(=O)O)nc3ccccc23)CC1 [CBK304316N]	78.378
CC1CCc2n[nH]c(C(=O)NCCCC3CCOC3)c2C1 (stereo not drawn) [CBK283212]	99.885
CCn1c(CC2CCN(C(=O)CCn3nnnc3C)CC2)nn(C)c1=O [CBK307400]	54.1933
Cc1noc(C)c1CN(C)C(=O)NC1CCCc2c1cnn2CCO (stereo not drawn) [CBK306283]	35.216
Cc1noc(C)c1NC(=O)c1ccc2nccnc2c1 [CBK200221]	94.2818
COC[C@@H]1CCCN1S(=O)(=O)c1ccc(OC(F)(F)F)cc1 [CBK044338]	107.817
Cn1cc(CCNC(=O)Nc2ccc(CN3CCCC3=O)cc2)cn1 [CBK305410]	55.5069
Clc1cc(NCc2ccc(Cl)c(Cl)c2)n2nccc2n1 [CBK037043]	73.5118
CN1CCC(Oc2ncccc2OCc2ccccc2)CC1 [CBK036311]	94.7201
COC(=O)C1C(=O)Oc2ccc3ccccc3c2C1C(C)C(=O)c1ccc(Br)cc1 (stereo not drawn) [CBK266126]	107.671
OC1(c2cccnc2F)CCN(Cc2ccc(F)cc2F)CC1 [CBK284369]	91.7577
O=[N+]([O-])c1cc(S(=O)(=O)Nc2ccc3cn[nH]c3c2)ccc1Cl [CBK067160]	84.4769
COC(=O)c1csc2nc(NCCCO)sc12 [CBK058832]	74.3287
Fc1cccc(NCc2ccccc2)n1 [CBK000149]	73.037
CC(C)(C)OC(=O)N1CCC(COc2ncc(-c3ccc(C(=O)N4CCC[C@@H]4CO)nc3)cn2)CC1 [CBK170022]	61.6238

SMILES	% of control remaining
O=C(COc1ccc(F)cc1)Nc1ccc2[nH]ccc2c1 [CBK159689]	97.0406
CC(C)CC(=O)N1CCC(Cc2ccccc2-c2cccs2)(C(=O)NC(C)C)CC1 [CBK285898]	114.123
CC(NC(=O)N1CCc2ccccc2C1)c1ccccc1 (stereo not drawn) [CBK155310]	105.243
CCOC(=O)c1c(NC(=O)CN2CCN(c3ccc(F)cc3)CC2)sc2c1CCCC2 [CBK265536]	97.3755
O=C(NCc1ccc2c(c1)OCO2)c1ccc(S(=O)(=O)N2CCCC2)cc1 [CBK263590]	94.8778
CC(=O)N(Cc1ccccc1)C1CCCc2c1[nH]c1ccc(C)cc21 (stereo not drawn) [CBK261810]	100.891
OC1CCCCC1C1(NC(=S)Nc2ccccc2)CCCCC1 (stereo not drawn) [CBK026324]	35.8329
COc1ccc(Nc2cc(-c3cccc(NC(C)=O)c3)ncn2)cn1 [CBK037125]	99.0669
O=C(NCc1ccco1)c1cc(-c2ccc3[nH]ccc3c2)cnc1NCCOc1ccccc1 [CBK106388]	89.1453
O=C(Cn1cnc2ccc(F)cc2c1=O)N1CCOC2CCCC21 (stereo not drawn) [CBK304932]	48.346
CCCc1n[nH]c(=S)n1CC(=O)Nc1cccc(-n2ncc(C(=O)OCC)c2C)c1 [CBK297746]	79.1559
O=C(CN1CCN(C2CCCC2)C(=O)C1)N1CCCc2ccccc21 [CBK282132]	106.956
O=C(COc1ccc(-c2cnc3ccccc3n2)cc1)c1cccc([N+](=O)[O-])c1 [CBK266367]	120.315
CCc1cc2c(=O)c(-c3nc(C)cs3)c(CCCC(=O)O)oc2cc1O [CBK264834]	108.459
COC(=O)c1c(NC(=O)C2CC=CCC2C(=O)O)sc2c1CCC(c1ccccc1)C2 (stereo not drawn) [CBK263683]	102.065
CCN(CC)C(=O)CN1CCN(c2nccnc2OC)CC1 [CBK084221]	63.2626
Cc1ccsc1CNC(=O)OCC1CCN(C)CC1 [CBK200149]	84.4802
O=C(O)Cc1nnnn1-c1ccccc1 [CBK262984]	83.9136
CCc1nc2ccc(C(=O)Nc3ccc(Cl)c(Cl)c3)cn2c1N(C)Cc1ccc(OC)cc1 [CBK145585]	78.3336
Cc1cc(=O)oc2cc(OCC(=O)Nc3cccc(C(=O)O)c3)ccc12 [CBK287058]	119.337
COc1ccc(SCC(=O)Nc2nccs2)cc1 [CBK287751]	80.0216

SMILES	% of control remaining
Cc1ccc2nc(CNC(=O)CN(C)C3CCNCC3)cn2c1 [CBK307228]	62.3668
Cc1cn(C(C)(C)C(=O)N2CCOCC2)nc1-c1ccccc1Cl [CBK005206]	53.4902
O=C(O)C1CC=CCC1C(=O)NCc1ccc2c(c1)OCO2 (stereo not drawn) [CBK264209]	127.562
O=C(O)c1cc(Nc2nc(N3CCOCC3)nc(N3CCOCC3)n2)ccc1Cl [CBK268081]	92.6344
Cc1nc(NCc2ccc(C(F)(F)F)cc2)nc(N2CCN(C)CC2)n1 [CBK023866]	98.1589
CN(CC#CCN1CCCC1)C(=O)CNC(=O)OC(C)(C)C [CBK007489]	56.8771
c1ccc(COc2ccccc2CNCCN2CCOCC2)cc1 [CBK278212C]	97.829
FC(F)(F)c1ccccc1/C=N/n1c(S)nnc1COc1ccccc1 [CBK265260]	103.744
OCCN(CCO)c1cncc(-c2ccc(Cl)cc2)n1 [CBK065748]	111.415
N=C1OC2CSCC2N1C(=O)C1(c2ccccc2)CC1 (stereo not drawn) [CBK284524]	126.364
O=C1COc2ccccc2CCCCC2(CCCN(CC(=O)N3CCCC3)C2)CN1 (stereo not drawn) [CBK292009]	84.6757
Cc1ccn(CCNC(=O)C(C)Cc2cccs2)n1 (stereo not drawn) [CBK281625]	84.0222
Cn1ccnc1C1(O)CC2CCC(C1)N2C(=O)NCc1ccccc1 (stereo not drawn) [CBK284050]	96.65
COc1cc(-c2cncc(Nc3ccc4c(c3)OC(F)(F)C(F)(F)O4)n2)cc(OC)c1OC [CBK065138]	79.3085
CS(=O)(=O)Nc1ccc(-c2cc(F)cc(F)c2)c2ccccc12 [CBK083743]	92.9
N=c1n(CCCOc2ccccc2Cl)c2ccccc2n1CC(N)=O [CBK268927C]	101.249
CCOc1ccc2[nH]c(C(=O)NC3CCCOC3)c(C)c2c1 (stereo not drawn) [CBK282529]	119.641
COC(=O)c1ccccc1N1C(=O)c2cccc([N+](=O)[O-])c2C1=O [CBK115382]	85.4583
